How the values were obtained:
[1] = Antibody stability, non-reducing CE-SDS (pH 9.0); type: physicochemical
Protocol: (§1) The stability of h1702 and h1702DS was tested by SEC, non-reducing CE-SDS test method (pH 9.0) and IEX test method.
Samples were processed using the Beckman SDS-MW Analysis Kit. 100 μg of protein was added with a buffer solution, and heated to denature. Data was collected using PA800 capillary electrophoresis apparatus.

Calu-6 cells = assay: In vitro cell proliferation test (CellTiter-Glo), Calu-6; type: cell-based; conditions: ADCs with various drug loadings, procedures as Test Example 6
Protocol: (§2) EMEM medium preparation: MEM medium (GE, CAT #SH30024.01), NEAA (sigma, CAT#M7145-100ML) and sodium pyruvate solution (sigma, CAT #S8636-100ML). […] Then the cells were resuspended by the addition of fresh medium. The cells were counted, and the cell suspension was formulated to the corresponding density (U87MG cells: 500 cells/well; […] 180 μL of cell suspension was added to a 96-well plate, and 200 μL of medium was added to the periphery of the 96-well plate. The plate was incubated for 24 hours in an incubator (37° C., 5% CO2). […] The samples were added to the plate, which was incubated for 6 days in the incubator (37° C., 5% CO2). 90 μl of CellTiter-Glo reagent was added to each well of the 96-well plate, and the plate was left to stand in the dark at room temperature for 10 minutes. The chemiluminescence signal value was read in Victor3, and the data was processed by GraphPad software.

CHOK1 cells = assay: In vitro cell proliferation test (CellTiter-Glo), CHO-K1; type: cell-based; conditions: ADCs with various drug loadings, procedures as Test Example 6
Protocol: Then the cells were resuspended by the addition of fresh medium. The cells were counted, and the cell suspension was formulated to the corresponding density (U87MG cells: 500 cells/well; […] 180 μL of cell suspension was added to a 96-well plate, and 200 μL of medium was added to the periphery of the 96-well plate. The plate was incubated for 24 hours in an incubator (37° C., 5% CO2). […] The samples were added to the plate, which was incubated for 6 days in the incubator (37° C., 5% CO2). 90 μl of CellTiter-Glo reagent was added to each well of the 96-well plate, and the plate was left to stand in the dark at room temperature for 10 minutes. The chemiluminescence signal value was read in Victor3, and the data was processed by GraphPad software.

Detroit562 cells = assay: In vitro cell proliferation test (CellTiter-Glo), Detroit562; type: cell-based, human; conditions: ADCs with various drug loadings, procedures as Test Example 6
Protocol: as §2

[2] = Antibody stability, IEX test; type: physicochemical
Protocol: as §1
Waters Acquity H-Class chromatograph and Thermo MAbPac SCX-10 column were used. 50 μg of the antibody was loaded, and a linear gradient was applied, using CX-1 pH Gradient Buffer Kit as the mobile phase. Ultraviolet signal at a wavelength of 280 nm was collected.

[3] = Antibody stability, SEC test; type: physicochemical
Protocol: as §1
SEC test: Waters e2695 chromatograph and Xbridge BEH 200A SEC column were used. 50 μg of antibody was loaded, and eluted with PBS mobile phase in constant gradient.

B1: h1702DS: anti-B7H3 antibody, light chain mutant of 1702; heavy chain SEQ ID NO: 14, light chain SEQ ID NO: 16 (antibody)
heavy: QVQLVQSGGGVVQPGTSLRLSCAASGFIFSSSAMHWVRQAPGKGLEWVAVISYDGSNKYYVDSVKGRFTISRDNSKNTLYLQMNSLRAEDTAVYYCARSARLYASFDYWGQGALVTVSS[human IgG1 constant region not listed]
light: DTVVTQEPSFSVSPGGTVTLTCGLSSGSVSTSHYPSWYQQTPGQAPRMLIYNTNTRSSGVPDRFSGSILGNKAALTITGAQADDESDYYCAIHVDRDIWVFGGGTKLTVLGQPKANPTVTLFPPSSEELQANKATLVCLISDFYPGAVTVAWKADGSPVKAGVETTKPSKQSNNKYAASSYLSLTPEQWKSHRSYSCQVTHEGSTVEKTVAPTEC
modifications: Synthetic Sequence_Heavy chain (IgG1) amino acid sequence of 1702; Synthetic Sequence_Light chain sequence of 1702DS after mutation modification
- CE-SDS (pH9.0) [1]: 94.67%
- Calu-6 Maximum inhibition rate (%) (Calu-6 cells): 0.99%
- IC50 (Calu-6 cells; read-out: Calu-6 IC50): > 500 nM
- CHOK1 Maximum inhibition rate (%) (CHOK1 cells): 12.62%
- IC50 (CHOK1 cells; read-out: CHOK1 IC50): > 500 nM
- Detroit562 Maximum inhibition rate (%) (Detroit562 cells): −2.77%
- IC50 (Detroit562 cells; read-out: Detroit562 IC50): > 500 nM
- IEX [2]: 86.21%
- SEC [3]: 100%
